Reference: the supplement of paper PMC8728848
This is one part of the list.

Legend:
Experiment in all cases: glycan array binding signal (z-score within array); higher = stronger binding
Settings in all cases: glycan notation: IUPAC condensed, linker removed
Fuc(a1-2)Gal = target: Fuc(a1-2)Gal
Procedure, shortened: (§1)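 The binding signal is a Z-score computed within each array and averaged over linkers. Arrays of the same protein sequence at different concentrations or buffers were also averaged together. Data originate from 3228 arrays in the Consortium for Functional Glycomics database, kept only where the protein sequence was available.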

Fuc(a1-2)Gal(b1-3)GalNAc = target: Fuc(a1-2)Gal(b1-3)GalNAc
Procedure, shortened: as §1

[1] = target: Fuc(a1-2)Gal(b1-3)GalNAc(b1-3)Gal
Procedure, shortened: as §1

[2] = target: Fuc(a1-2)Gal(b1-3)GalNAc(b1-3)Gal(a1-4)Gal(b1-4)Glc
Procedure, shortened: as §1

[3] = target: Fuc(a1-2)Gal(b1-3)GalNAc(b1-4)[Neu5Ac(a2-3)]Gal(b1-4)Glc
Procedure, shortened: as §1

Fuc(a1-2)Gal(b1-3)GlcNAc = target: Fuc(a1-2)Gal(b1-3)GlcNAc
Procedure, shortened: as §1

[4] = target: Fuc(a1-2)Gal(b1-3)GlcNAc(b1-2)Man(a1-3)[Fuc(a1-2)Gal(b1-3)GlcNAc(b1-2)Man(a1-6)]Man(b1-4)GlcNAc(b1-4)GlcNAc
Procedure, shortened: as §1

[5] = target: Fuc(a1-2)Gal(b1-3)GlcNAc(b1-3)Gal(b1-4)Glc
Procedure, shortened: as §1

[6] = target: Fuc(a1-2)Gal(b1-3)GlcNAc(b1-3)[Gal(b1-4)[Fuc(a1-3)]GlcNAc(b1-6)]Gal(b1-4)Glc
Procedure, shortened: as §1

[7] = target: Fuc(a1-2)Gal(b1-3)[Fuc(a1-4)]GlcNAc
Procedure, shortened: as §1

[8] = target: Fuc(a1-2)Gal(b1-3)[Fuc(a1-4)]GlcNAc(b1-2)Man(a1-3)[Fuc(a1-2)Gal(b1-3)[Fuc(a1-4)]GlcNAc(b1-2)Man(a1-6)]Man(b1-4)GlcNAc(b1-4)GlcNAc
Procedure, shortened: as §1

Fuc(a1-2)Gal(b1-4)Glc = target: Fuc(a1-2)Gal(b1-4)Glc
Procedure, shortened: as §1

Fuc(a1-2)Gal(b1-4)Glc6S = target: Fuc(a1-2)Gal(b1-4)Glc6S
Procedure, shortened: as §1

Fuc(a1-2)Gal(b1-4)GlcNAc = target: Fuc(a1-2)Gal(b1-4)GlcNAc
Procedure, shortened: as §1

[9] = target: Fuc(a1-2)Gal(b1-4)GlcNAc(b1-2)Man(a1-3)[Fuc(a1-2)Gal(b1-4)GlcNAc(b1-2)Man(a1-6)]Man(b1-4)GlcNAc(b1-4)GlcNAc
Procedure, shortened: as §1

[10] = target: Fuc(a1-2)Gal(b1-4)GlcNAc(b1-3)Gal(b1-4)GlcNAc
Procedure, shortened: as §1

[11] = target: Fuc(a1-2)Gal(b1-4)GlcNAc(b1-3)Gal(b1-4)GlcNAc(b1-3)Gal(b1-4)GlcNAc
Procedure, shortened: as §1

[12] = target: Fuc(a1-2)Gal(b1-4)GlcNAc6S
Procedure, shortened: as §1

[13] = target: Fuc(a1-2)Gal(b1-4)[Fuc(a1-3)]GlcNAc
Procedure, shortened: as §1

[14] = target: Fuc(a1-2)Gal(b1-4)[Fuc(a1-3)]GlcNAc(b1-2)Man(a1-3)[Fuc(a1-2)Gal(b1-4)[Fuc(a1-3)]GlcNAc(b1-2)Man(a1-6)]Man(b1-4)GlcNAc(b1-4)GlcNAc
Procedure, shortened: as §1

[15] = target: Fuc(a1-2)Gal(b1-4)[Fuc(a1-3)]GlcNAc(b1-3)Gal(b1-4)[Fuc(a1-3)]GlcNAc
Procedure, shortened: as §1

[16] = target: Fuc(a1-2)Gal(b1-4)[Fuc(a1-3)]GlcNAc(b1-3)Gal(b1-4)[Fuc(a1-3)]GlcNAc(b1-3)Gal(b1-4)[Fuc(a1-3)]GlcNAc
Procedure, shortened: as §1

Fuc(a1-2)Gal6S(b1-4)Glc = target: Fuc(a1-2)Gal6S(b1-4)Glc
Procedure, shortened: as §1

[17] = target: Fuc(a1-2)Gal6S(b1-4)Glc6S
Procedure, shortened: as §1

[18] = target: Fuc(a1-2)Gal6S(b1-4)GlcNAc
Procedure, shortened: as §1

Fuc(a1-2)[Gal(a1-3)]Gal = target: Fuc(a1-2)[Gal(a1-3)]Gal
Procedure, shortened: as §1

[19] = target: Fuc(a1-2)[Gal(a1-3)]Gal(b1-3)GlcNAc
Procedure, shortened: as §1

[20] = target: Fuc(a1-2)[Gal(a1-3)]Gal(b1-3)GlcNAc(b1-2)Man(a1-3)[Fuc(a1-2)[Gal(a1-3)]Gal(b1-3)GlcNAc(b1-2)Man(a1-6)]Man(b1-4)GlcNAc(b1-4)GlcNAc
Procedure, shortened: as §1

[21] = target: Fuc(a1-2)[Gal(a1-3)]Gal(b1-4)Glc
Procedure, shortened: as §1

[22] = target: Fuc(a1-2)[Gal(a1-3)]Gal(b1-4)GlcNAc
Procedure, shortened: as §1

[23] = target: Fuc(a1-2)[Gal(a1-3)]Gal(b1-4)GlcNAc(b1-2)Man(a1-3)[Fuc(a1-2)[Gal(a1-3)]Gal(b1-4)GlcNAc(b1-2)Man(a1-6)]Man(b1-4)GlcNAc(b1-4)GlcNAc
Procedure, shortened: as §1

[24] = target: Fuc(a1-2)[Gal(a1-3)]Gal(b1-4)[Fuc(a1-3)]GlcNAc
Procedure, shortened: as §1

[25] = target: Fuc(a1-2)[Gal(a1-4)]Gal(b1-4)GlcNAc
Procedure, shortened: as §1

[26] = target: Fuc(a1-2)[GalNAc(a1-3)]Gal
Procedure, shortened: as §1

[27] = target: Fuc(a1-2)[GalNAc(a1-3)]Gal(b1-3)GlcNAc
Procedure, shortened: as §1

[28] = target: Fuc(a1-2)[GalNAc(a1-3)]Gal(b1-3)GlcNAc(b1-2)Man(a1-3)[Fuc(a1-2)[GalNAc(a1-3)]Gal(b1-3)GlcNAc(b1-2)Man(a1-6)]Man(b1-4)GlcNAc(b1-4)GlcNAc
Procedure, shortened: as §1

[29] = target: Fuc(a1-2)[GalNAc(a1-3)]Gal(b1-4)Glc
Procedure, shortened: as §1

[30] = target: Fuc(a1-2)[GalNAc(a1-3)]Gal(b1-4)GlcNAc
Procedure, shortened: as §1

[31] = target: Fuc(a1-2)[GalNAc(a1-3)]Gal(b1-4)GlcNAc(b1-2)Man(a1-3)[GalNAc(a1-3)[Fuc(a1-2)]Gal(b1-4)GlcNAc(b1-2)Man(a1-6)]Man(b1-4)GlcNAc(b1-4)GlcNAc
Procedure, shortened: as §1

[32] = target: Fuc(a1-2)[GalNAc(a1-3)]Gal(b1-4)GlcNAc(b1-3)Gal(b1-4)GlcNAc
Procedure, shortened: as §1

[33] = target: Fuc(a1-2)[GalNAc(a1-3)]Gal(b1-4)GlcNAc(b1-3)Gal(b1-4)GlcNAc(b1-3)Gal(b1-4)GlcNAc
Procedure, shortened: as §1

[34] = target: Fuc(a1-2)[GalNAc(a1-3)]Gal(b1-4)[Fuc(a1-3)]GlcNAc
Procedure, shortened: as §1

[35] = target: Fuc(a1-2)[GalNAc(a1-4)]Gal(b1-4)GlcNAc
Procedure, shortened: as §1

[36] = target: Fuc(a1-2)[GalNAc(b1-3)]Gal
Procedure, shortened: as §1

Fuc(a1-3)GlcNAc = target: Fuc(a1-3)GlcNAc
Procedure, shortened: as §1

B1: DC-ASPGR (Homo sapiens), CLC10_HUMAN (protein)
chain: LDQNSKFQRDLVTLRTDFSNFTSNTVAEIQALTSQGSSLEETIASLKAEVEGFKQERQAVHSEMLLRVQQLVQDLKKLTCQVATLNNNASTEGTCCPVNWVEHQDSCYWFSHSGMSWAEAEKYCQLKNAHLVVINSREEQNFVQKYLGSAYTWMGLSDPEGAWKWVDGTDYATGFQNWKPGQPDDWQGHGLGGGEDCAHFHPDGRWNDDVCQRPYHWVCEAGLGQTSQESHVEPKSCDKTHTCPPCPAPELLGGPSVFLFPPKPKDTLMISRTPEVTCVVVDVSHEDPEVKFNWYVDGVEVHNAKTKPREEQFNSTYRVVSVLTVLHQDWLNGKEYKCKVSNKGLPSSIEKTISKAKGQPREPQVYTLPPSQEEMTKNQVSLTCLVKGFYPSDIAVEWESNGQPENNYKTTPPVLDSDGSFFLYSRLTVDKSRWQEGNVFSCSVMHEALHNHYTQK
glycan array binding signal (z-score) (Fuc(a1-2)Gal): -0.295 | glycan array binding signal (z-score) (Fuc(a1-2)Gal(b1-3)GalNAc): -0.222 | glycan array binding signal (z-score) [1]: -0.265 | glycan array binding signal (z-score) [2]: -0.221 | glycan array binding signal (z-score) [3]: 0.303 | glycan array binding signal (z-score) (Fuc(a1-2)Gal(b1-3)GlcNAc): -0.121 | glycan array binding signal (z-score) [4]: -0.074 | glycan array binding signal (z-score) [5]: -0.251 | glycan array binding signal (z-score) [6]: -0.117 | glycan array binding signal (z-score) [7]: -0.295 | glycan array binding signal (z-score) [8]: -0.04 | glycan array binding signal (z-score) (Fuc(a1-2)Gal(b1-4)Glc): -0.082 | glycan array binding signal (z-score) (Fuc(a1-2)Gal(b1-4)Glc6S): -0.118 | glycan array binding signal (z-score) (Fuc(a1-2)Gal(b1-4)GlcNAc): -0.165 | glycan array binding signal (z-score) [9]: -0.221 | glycan array binding signal (z-score) [10]: -0.205 | glycan array binding signal (z-score) [11]: -0.151 | glycan array binding signal (z-score) [12]: -0.177 | glycan array binding signal (z-score) [13]: 0.255 | glycan array binding signal (z-score) [14]: 0.094 | glycan array binding signal (z-score) [15]: -0.042 | glycan array binding signal (z-score) [16]: -0.173 | glycan array binding signal (z-score) (Fuc(a1-2)Gal6S(b1-4)Glc): -0.062 | glycan array binding signal (z-score) [17]: -0.21 | glycan array binding signal (z-score) [18]: -0.268 | glycan array binding signal (z-score) (Fuc(a1-2)[Gal(a1-3)]Gal): -0.287 | glycan array binding signal (z-score) [19]: -0.232 | glycan array binding signal (z-score) [20]: -0.142 | glycan array binding signal (z-score) [21]: -0.303 | glycan array binding signal (z-score) [22]: -0.222 | glycan array binding signal (z-score) [23]: -0.297 | glycan array binding signal (z-score) [24]: -0.108 | glycan array binding signal (z-score) [25]: -0.15 | glycan array binding signal (z-score) [26]: 1.22 | glycan array binding signal (z-score) [27]: 0.911 | glycan array binding signal (z-score) [28]: -0.203 | glycan array binding signal (z-score) [29]: 0.817 | glycan array binding signal (z-score) [30]: 0.732 | glycan array binding signal (z-score) [31]: -0.164 | glycan array binding signal (z-score) [32]: -0.035 | glycan array binding signal (z-score) [33]: -0.139 | glycan array binding signal (z-score) [34]: -0.097 | glycan array binding signal (z-score) [35]: 1.97 | glycan array binding signal (z-score) [36]: 3.91 | glycan array binding signal (z-score) (Fuc(a1-3)GlcNAc): -0.256
